# The supplement of paper PMC3334620
# Whole data set: some 33,000 sequences, median “E-score (-0.5 to 0.5)” near -0.032, cut for the highest 2% near 0.36. The list shows a part of the results.
# Molecular target: T1, Sko1 (UniProt Q02100)
# T1 sequence: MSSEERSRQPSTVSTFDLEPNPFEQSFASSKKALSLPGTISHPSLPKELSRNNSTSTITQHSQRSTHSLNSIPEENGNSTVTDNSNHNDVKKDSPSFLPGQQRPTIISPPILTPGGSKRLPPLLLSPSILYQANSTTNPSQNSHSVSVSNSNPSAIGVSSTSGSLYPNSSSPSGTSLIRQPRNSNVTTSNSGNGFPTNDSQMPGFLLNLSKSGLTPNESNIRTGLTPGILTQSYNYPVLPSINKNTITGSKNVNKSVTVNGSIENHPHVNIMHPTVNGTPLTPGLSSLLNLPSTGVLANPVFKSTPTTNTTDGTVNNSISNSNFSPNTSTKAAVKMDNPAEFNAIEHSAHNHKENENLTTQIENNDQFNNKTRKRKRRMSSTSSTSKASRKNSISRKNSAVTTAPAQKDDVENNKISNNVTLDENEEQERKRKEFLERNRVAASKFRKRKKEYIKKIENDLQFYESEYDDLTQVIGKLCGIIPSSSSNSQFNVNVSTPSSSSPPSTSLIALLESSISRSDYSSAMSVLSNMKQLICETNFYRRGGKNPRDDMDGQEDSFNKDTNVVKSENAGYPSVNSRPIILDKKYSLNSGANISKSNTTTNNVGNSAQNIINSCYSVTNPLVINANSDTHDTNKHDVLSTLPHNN
# Test: PBM E-score (8-mer binding enrichment) (E-score (-0.5 to 0.5)); higher = stronger / more preferred TF binding; most listed sequences are background and not binding sites
# Conditions: protein concentration: 200 nM; construct: GST-full length
# Outline: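 For each ungapped eight-base word taken together with its reverse complement, the Universal PBM Analysis Suite assigned an E-score. Binding data came from GST-tagged yeast transcription factors, applied at about 100-200 nM, on universal all-10-mer Agilent arrays made double-stranded by primer extension. Fluorescent anti-GST marked bound protein, and scans were normalised with masliner.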
row,Sequence,PBM E-score
1,ATGGAGAA,0.0187
2,AGTCCGAC,-0.103
3,AGAACGGA,-0.117
4,GGAAATAC,0.148
5,AGCGTTAC,0.0252
6,CCCCAGAC,-0.206
7,ACGCAACG,0.377
8,ATATAGAC,0.141
9,CACCGTAA,0.0886
10,ACTCAAAA,0.0983
11,CACCTCGA,-0.0198
12,AGATGGAT,-0.191
13,AGTCGTTC,0.0772
14,ATTAGAGG,-0.0103
15,CCCAGGTC,-0.258
16,ATTCTTAC,0.24
17,CCTGCGCC,-0.236
18,AAAACTCG,0.15
19,TCACTGAA,-0.00771
20,CATCTCTC,-0.0287
21,AAAACTGA,-0.0502
22,GATGGCAC,-0.165

row,Sequence,PBM E-score
1,AGTCTGAC,0.0257
2,GGTGGGTA,-0.177
3,CGCGACCA,-0.0344
4,CACGATTA,0.119
5,ATCCTTCG,-0.0893
6,CGTAGCGA,0.141
7,ACTCGAAT,-0.079
8,TCAGCGAA,-0.112
9,CAGCTTCA,-0.0163
10,AGATTATA,0.157
11,AAACACGA,0.163
12,ATTCTCCG,-0.0461
13,ATTTTGTA,0.152
14,CACACGAG,-0.191
15,CCGCAAGG,-0.232
16,ATTGCGGA,-0.0563
17,GAGTCCAC,-0.214
18,CTAACGCA,0.209
19,AAGACGCT,-0.168
20,TATGAACA,0.148
21,GCGAGGCA,-0.14
22,AAATGGAA,0.00883

row,Sequence,PBM E-score
1,ATTTAATA,0.247
2,AAGAAGCA,0.0475
3,GCGCTACC,-0.21
4,TTATCAAA,0.205
5,CGAGAAAA,0.024
6,CTAATCGC,0.00167
7,AGTAATAT,0.224
8,CTCAGACC,-0.126
9,GTGAGGTA,0.0525
10,CAGCCACC,-0.169
11,CAGGGCTC,-0.29
12,CACAAAAG,-0.0941
13,ATCGAGAC,-0.0154
14,AGCCATAT,-0.0111
15,ATCGTGCA,0.117
16,CAGGTTCA,-0.0788
17,CTGGACTA,-0.222
18,CGTGTGAA,0.0571
19,GCGATCTA,0.014
20,CCAAGGAG,-0.15
21,CTCTGGTC,-0.177
22,AAGGCAGA,-0.237

row,Sequence,PBM E-score
1,GTCTCCAC,-0.0502
2,CCCTATAA,-0.143
3,ACGTACTC,0.432
4,TCCATAAA,-0.0326
5,CGATCCTC,-0.0326
6,AGATAATC,0.0844
7,GATCCAGA,-0.00176
8,CAGCGATA,-0.154
9,AATGGTTA,0.0449
10,CCACGCCG,-0.292
11,AAGATTCA,0.0314
12,AAGACTAT,0.0616
13,CAGCCTAA,-0.0852
14,AAGGGACT,-0.253
15,GACACAGA,-0.0171
16,ACGGACAC,0.0624
17,CTCCTCGA,-0.103
18,CTTCGCGC,0.217
19,CAACACGG,-0.0807
20,CCAACTAC,-0.0348
21,CCATCGAG,0.0626
22,TATTAATA,0.0036

row,Sequence,PBM E-score
1,CCGCTCAG,-0.255
2,CAACATAC,0.137
3,GAGTGCGA,-0.168
4,CTTAAGCC,-0.03
5,CCCAACGC,0.0735
6,ACTTCACA,0.0677
7,CAGAGCAG,-0.127
8,ACAAGAAT,0.0785
9,AATTGTAC,0.173
10,ACGGCCCG,-0.139
11,ACTCTCTC,-0.281
12,ATGCGTTG,0.227
13,AGTATACA,0.0979
14,ACTGTTTG,0.0323
15,GACTTAAA,0.111
16,CTGGGAAC,-0.159
17,ACTTTGGA,0.111
18,GCATCCAC,0.0302
19,GGTTTAAC,-0.0299
20,ACTGTCCG,-0.0736
21,TACAACAA,0.134
22,CGCTGAGA,-0.0923
